Like-named read-outs stand apart in the source and are kept apart here. At least one compound was matched to its structure with a doubt left.
Legend:
[1] = target: T1, full-length beta-Catenin (Uniprot ID P35222) (Homo sapiens, UniProt P35222); experiment: Fluorescence polarization IC50 (beta-catenin / 5FAM-TCF4 10-53 competition); assay type: binding
T1 construct: 10 nM full-length beta-Catenin (Uniprot ID P35222)
T1 sequence (P35222 1-781): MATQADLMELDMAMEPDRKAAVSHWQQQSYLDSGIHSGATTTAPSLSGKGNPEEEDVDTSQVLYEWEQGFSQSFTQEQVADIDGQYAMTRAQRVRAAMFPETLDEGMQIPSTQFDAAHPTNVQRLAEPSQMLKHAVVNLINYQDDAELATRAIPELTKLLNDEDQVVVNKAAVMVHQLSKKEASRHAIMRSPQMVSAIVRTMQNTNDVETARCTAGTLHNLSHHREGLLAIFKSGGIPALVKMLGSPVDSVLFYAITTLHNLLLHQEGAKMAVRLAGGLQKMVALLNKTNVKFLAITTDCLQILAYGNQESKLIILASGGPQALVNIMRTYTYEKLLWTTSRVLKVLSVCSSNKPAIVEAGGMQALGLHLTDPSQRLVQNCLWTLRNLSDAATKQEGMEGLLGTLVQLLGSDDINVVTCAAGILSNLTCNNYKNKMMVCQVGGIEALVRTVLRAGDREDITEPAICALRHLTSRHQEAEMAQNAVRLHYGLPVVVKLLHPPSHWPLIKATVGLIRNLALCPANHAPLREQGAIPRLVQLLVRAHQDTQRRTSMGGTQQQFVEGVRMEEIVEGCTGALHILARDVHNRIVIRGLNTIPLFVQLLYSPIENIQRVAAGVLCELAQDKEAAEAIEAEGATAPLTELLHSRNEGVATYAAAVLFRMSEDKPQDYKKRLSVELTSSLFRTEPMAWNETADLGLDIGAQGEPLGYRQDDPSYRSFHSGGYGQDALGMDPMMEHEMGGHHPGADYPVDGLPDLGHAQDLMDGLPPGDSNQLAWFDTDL

[2] = target: T2, beta-catenin/TCF4 engagement (Homo sapiens, UniProt P35222); experiment: Nano-BRET target engagement assay (B-cat-Halo & TCF4-Luc in HEK293 cells); assay type: cell-based
T2 construct: expressed in transfected cells; host or cells: HEK293
T2 sequence (P35222 1-781): T1 sequence (P35222 1-781)

IC50 ([1]; read-out: beta-Catenin FP IC50) [µM] | IC50 ([2]; read-out: NanoBRET Abs IC50) [µM] | IC50 ([1]; fluorescence polarization, beta-catenin, read-out: FP EC50) [µM] | IC50 ([2]; read-out: NanoBRET IC50) [µM] | SMILES
0.0095 | 14.6 |  |  | CC(=O)N1CCC[C@]12CC=CCCCC1(CCCC=CCCCOC(=O)N3CC[C@@](C(=O)N[C@@H](Cc4ccsc4)C(=O)N[C@@H](Cc4csc5ccccc45)C(=O)N[C@@H](CCC(N)=O)C(=O)N[C@@H](C)C(=O)N[C@@H](C)C(=O)N[C@@H](C)C(N)=O)(C3)NC(=O)[C@H](CC(N)=O)NC(=O)[C@H](Cc3ccccc3)NC(=O)[C@H](C)NC(=O)[C@H](C)NC(=O)[C@H](CC(=O)O)NC(=O)[C@H](CC(=O)O)NC1=O)NC(=O)[C@H](CC(C)(C)C)NC(=O)[C@H](CC(=O)O)NC2=O (stereo partly drawn) [I-870, Ac-PL3-Asp-Npg-B5-Asp-Asp-Ala-Ala-Phe-Asn-PyrS2-3Thi-BztA-Gln-Ala-Ala]
0.005 | 13.7 | 0.005 |  | CC(=O)N1CCC[C@]12CC=CCCCC1(CCCC=CCCCOC(=O)N3CC[C@@](C(=O)N[C@@H](Cc4ccsc4)C(=O)N[C@@H](Cc4csc5ccccc45)C(=O)N[C@@H](CCC(N)=O)C(=O)N[C@H](C)C(=O)N[C@@H](C)C(=O)N[C@@H](C)C(N)=O)(C3)NC(=O)[C@H](CC(N)=O)NC(=O)[C@H](Cc3ccccc3)NC(=O)[C@H](C)NC(=O)[C@H](C)NC(=O)[C@H](CC(=O)O)NC(=O)[C@H](CC(=O)O)NC1=O)NC(=O)[C@H](CC(C)(C)C)NC(=O)[C@H](CC(=O)O)NC2=O (stereo partly drawn) [I-871, Ac-PL3-Asp-Npg-B5-Asp-Asp-Ala-Ala-Phe-Asn-PyrS2-3Thi-BztA-Gln-dAla-Ala]
0.0095 | 14.1 |  |  | CC(=O)N1CCC[C@]12CC=CCCCC1(CCCC=CCCCOC(=O)N3CC[C@@](C(=O)N[C@@H](Cc4ccsc4)C(=O)N[C@@H](Cc4csc5ccccc45)C(=O)N[C@@H](CCC(N)=O)C(=O)N[C@H](C)C(=O)N[C@H](C)C(=O)N[C@H](C)C(N)=O)(C3)NC(=O)[C@H](CC(N)=O)NC(=O)[C@H](Cc3ccccc3)NC(=O)[C@H](C)NC(=O)[C@H](C)NC(=O)[C@H](CC(=O)O)NC(=O)[C@H](CC(=O)O)NC1=O)NC(=O)[C@H](CC(C)(C)C)NC(=O)[C@H](CC(=O)O)NC2=O (stereo partly drawn) [I-872, Ac-PL3-Asp-Npg-B5-Asp-Asp-Ala-Ala-Phe-Asn-PyrS2-3Thi-BztA-Gln-dAla-dAla]
0.0065 | 10 |  | 8.9 | CC(=O)N1CCC[C@]12CC=CCCCC1(CCCC=CCCCOC(=O)N3CC[C@@](C(=O)N[C@@H](Cc4ccsc4)C(=O)N[C@@H](Cc4csc5ccccc45)C(=O)N[C@@H](CCC(N)=O)C(=O)N[C@@H](C)C(=O)N[C@@H](C)C(=O)N[C@H](C)C(N)=O)(C3)NC(=O)[C@H](CC(N)=O)NC(=O)[C@H](Cc3ccccc3)NC(=O)[C@H](C)NC(=O)[C@H](C)NC(=O)[C@H](CC(=O)O)NC(=O)[C@H](CC(=O)O)NC1=O)NC(=O)[C@H](CC(C)(C)C)NC(=O)[C@H](CC(=O)O)NC2=O (stereo partly drawn) [I-873, Ac-PL3-Asp-Npg-B5-Asp-Asp-Ala-Ala-Phe-Asn-PyrS2-3Thi-BztA-Gln-Ala-Ala]
0.0185 | 14.6 |  |  | CC(=O)N1CCC[C@]12CC=CCCCC1(CCCC=CCCCCCC[C@@](C)(C(=O)N[C@@H](Cc3ccsc3)C(=O)N[C@@H](Cc3csc4ccccc34)C(=O)N[C@@H](CCC(N)=O)C(=O)N[C@@H](C)C(=O)N[C@@H](C)C(=O)N[C@@H](C)C(N)=O)NC(=O)[C@H](CC(N)=O)NC(=O)[C@H](Cc3ccccc3)NC(=O)[C@H](C)NC(=O)[C@H](C)NC(=O)[C@H](CC(=O)O)NC(=O)[C@H](CC(=O)O)NC1=O)NC(=O)[C@H](CC(C)(C)C)NC(=O)[C@H](CC(=O)O)NC2=O (stereo partly drawn) [I-874, Ac-PL3-Asp-Npg-B5-Asp-Asp-Ala-Ala-Phe-Asn-S8-3Thi-BztA-Gln-Ala-Ala]
0.026 | 13.7 |  |  | CC(=O)N1CCC[C@]12CC=CCCCC1(CCCC=CCCCCCC[C@@](C)(C(=O)N[C@@H](Cc3ccsc3)C(=O)N[C@@H](Cc3csc4ccccc34)C(=O)N[C@@H](CCC(N)=O)C(=O)N[C@H](C)C(=O)N[C@@H](C)C(=O)N[C@@H](C)C(N)=O)NC(=O)[C@H](CC(N)=O)NC(=O)[C@H](Cc3ccccc3)NC(=O)[C@H](C)NC(=O)[C@H](C)NC(=O)[C@H](CC(=O)O)NC(=O)[C@H](CC(=O)O)NC1=O)NC(=O)[C@H](CC(C)(C)C)NC(=O)[C@H](CC(=O)O)NC2=O (stereo partly drawn) [I-875, Ac-PL3-Asp-Npg-B5-Asp-Asp-Ala-Ala-Phe-Asn-S8-3Thi-BztA-Gln-dAla-Ala]
